This is one part of the list. The list includes weakly bound sequences.
What follows are sequences tested against T1, MBP-FoxP3dN (UniProt Q99JB6) (assay: PD-seq (MBP pull-down with sequencing)). Conditions: 20 mM Tris-HCl pH 7.5, 100 mM NaCl, 1.5 mM MgCl2, 0.4 uM protein, 0.1 uM dsDNA library, 30 min, room temperature, amylose pull-down; high values mean tight binding; double strand, one strand shown.
T1 sequence: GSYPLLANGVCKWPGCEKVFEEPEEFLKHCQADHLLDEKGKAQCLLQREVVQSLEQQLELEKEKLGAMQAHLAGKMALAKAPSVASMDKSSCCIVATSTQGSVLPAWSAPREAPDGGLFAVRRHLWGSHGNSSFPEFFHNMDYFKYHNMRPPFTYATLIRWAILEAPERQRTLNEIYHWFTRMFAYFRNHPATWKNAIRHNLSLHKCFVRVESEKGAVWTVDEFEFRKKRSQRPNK
In the case of “GATGATTGTTCTCCCAGCTGATGAATTCACTCGTTCGAGTAAACAAATTTTCCTAATCTTTCTGTTCAAGCGCCATCTAC”, the binding signal (RPM ratio (pull-down/input)) was 0.387.
Sequence “GATGATTGTTCTCCCAGCTGATGAATTGTCTCAGTCGAGTAAACAAATTTTCCTAATCTTTCTGTTCAAGCGCCATCTAC” has a binding signal (RPM ratio (pull-down/input)) of 0.318.
“GATGATTGTTCTCCCAGCTGATGAATTTACATGGTCGAGTAAACAAATTTTCCTAATCTTTCTGTTCAAGCGCCATCTAC” showed a binding signal (RPM ratio (pull-down/input)) of 0.493.
“GATGATTGTTCTCCCAGCTGATGAATTACTTCGATCGAGTAAACAAATTTTCCTAATCTTTCTGTTCAAGCGCCATCTAC” showed a binding signal (RPM ratio (pull-down/input)) of 0.247.
With “GATGATTGTTCTCCCAGCTGATGAATTTACTTCGTCGAGTAAACAAATTTTCCTAATCTTTCTGTTCAAGCGCCATCTAC” the binding signal (RPM ratio (pull-down/input)) was 0.559.
“GATGATTGTTCTCCCAGCTGATGAATTGGGTTGCTCGAGTAAACAAATTTTCCTAATCTTTCTGTTCAAGCGCCATCTAC” gave a binding signal (RPM ratio (pull-down/input)) of 0.931.
For “GATGATTGTTCTCCCAGCTGATGAATTCAGAAGCTCGAGTAAACAAATTTTCCTAATCTTTCTGTTCAAGCGCCATCTAC”, the binding signal (RPM ratio (pull-down/input)) was 0.209.
With “GATGATTGTTCTCCCAGCTGATGAATTCCTGTACTCGAGTAAACAAATTTTCCTAATCTTTCTGTTCAAGCGCCATCTAC” the binding signal (RPM ratio (pull-down/input)) was 0.404.
“GATGATTGTTCTCCCAGCTGATGAATTATCACTATCGAGTAAACAAATTTTCCTAATCTTTCTGTTCAAGCGCCATCTAC” gave a binding signal (RPM ratio (pull-down/input)) of 0.505.
“GATGATTGTTCTCCCAGCTGATGAATTTTTGCTCTCGAGTAAACAAATTTTCCTAATCTTTCTGTTCAAGCGCCATCTAC” was tested, and the binding signal (RPM ratio (pull-down/input)) was 0.422.
For “GATGATTGTTCTCCCAGCTGATGAATTCCACGAGTCGAGTAAACAAATTTTCCTAATCTTTCTGTTCAAGCGCCATCTAC”, the binding signal (RPM ratio (pull-down/input)) was 0.257.
“GATGATTGTTCTCCCAGCTGATGAATTCGTAATTTCGAGTAAACAAATTTTCCTAATCTTTCTGTTCAAGCGCCATCTAC” showed a binding signal (RPM ratio (pull-down/input)) of 0.623.
Sequence “GATGATTGTTCTCCCAGCTGATGAATTCTACTCCTCGAGTAAACAAATTTTCCTAATCTTTCTGTTCAAGCGCCATCTAC” has a binding signal (RPM ratio (pull-down/input)) of 0.336.
In the case of “GATGATTGTTCTCCCAGCTGATGAATTACGCTGCTCGAGTAAACAAATTTTCCTAATCTTTCTGTTCAAGCGCCATCTAC”, the binding signal (RPM ratio (pull-down/input)) was 0.655.
Sequence “GATGATTGTTCTCCCAGCTGATGAATTCAACCGTTCGAGTAAACAAATTTTCCTAATCTTTCTGTTCAAGCGCCATCTAC” has a binding signal (RPM ratio (pull-down/input)) of 0.334.
“GATGATTGTTCTCCCAGCTGATGAATTAGCTCGGTCGAGTAAACAAATTTTCCTAATCTTTCTGTTCAAGCGCCATCTAC” was tested, and the binding signal (RPM ratio (pull-down/input)) was 0.209.
Sequence “GATGATTGTTCTCCCAGCTGATGAATTTTAGAATTCGAGTAAACAAATTTTCCTAATCTTTCTGTTCAAGCGCCATCTAC” has a binding signal (RPM ratio (pull-down/input)) of 0.632.
With “GATGATTGTTCTCCCAGCTGATGAATTCTCACCATCGAGTAAACAAATTTTCCTAATCTTTCTGTTCAAGCGCCATCTAC” the binding signal (RPM ratio (pull-down/input)) was 0.338.
